Among all 150,000 compounds or so, about 540 (0.36%) showed an effect of 50% or more. This is one part of the list.
These compounds were tested on Plasmodium falciparum (assay: Primary screen in NF54 nanoGlo assay, in single point, at 2uM, 72h; a lower Z score goes with more inhibition). Settings: timepoint 72 hour.
Format: functional, Erythrocyte

Compound | % Inhibition [%] | Z score
CC(C)NC(=O)NCCN1CCc2[nH]ncc2C1 | 10 | -1.15
O=S(=O)(Nc1ccc2nc(N3CCCC3)sc2c1)c1ccccc1Br | -7 | 1.18
O=C(Nc1ccc(-n2cncn2)nc1)c1cc(Cl)ccc1F | -22 | 1.97
Cn1ccnc1CN1CC[C@@](C)(O)[C@@H](NC(=O)C2CCCC2)[C@@H]1c1cccs1 | -6 | 0.94
Cc1cccc([C@H]2C[C@@H]2C(=O)Nc2cc(C(=O)O)[nH]n2)c1 | -15 | 2.96
COCCCNC(=O)C(=O)NCc1cccnc1 | 2 | -0.26
CC1(CNC(=O)Nc2ncc(Cc3ccccc3)s2)OCCCO1 | -21 | 1.89
c1ccc(CN2CCN(c3cc4c(nn3)CCC4)CC2)cc1 | -10 | 1.96
Cc1nn(C)c(C)c1NC(=O)N(C)Cc1ccsc1 | 15 | -1.91
CC1CC(CCNC(=O)N2C[C@@H](F)[C@@H](F)C2)CCO1 (stereo not given in full) | -5 | 0.61
CC1CN(C(=O)N[C@H]2C[C@H](c3cccc(C(F)(F)F)c3)C2)CC2(CCOC2)O1 (stereo not given in full) | -6 | 0.61
Clc1ccccc1COc1ccc(CNC2CC2)cc1 | -7 | 1.33
Cc1c(CC(=O)N2CCC[C@H]2CO)c2c(n1Cc1ccc(F)cc1)CCCC2=O | -1 | 0.23
O=C(Nc1ccc(Br)cc1)c1cccnc1-n1cc(-c2ccncc2)cn1 | 8 | -1
CN(Cc1ccccc1N1CCOCC1)c1ncc(F)cn1 | 4 | -0.67
CCCC(=O)Oc1ccccc1N(C(=O)CCC)S(=O)(=O)c1ccc2ccccc2c1 | -3 | 0.61
O=C(NCc1cn(-c2cccs2)nn1)c1ccc(Cl)s1 | 12 | -1.56
CC1CN(C(=O)[C@@H]2CCCO[C@H]2c2ccnn2C(C)C)c2cccnc2O1 (stereo not given in full) | -1 | 0.2
CC1(C)OCCC1CNC(=O)NC1CC1(C)c1ccc(F)c(F)c1 (stereo not given) | -4 | 0.86
Cc1cccc(NC(=O)CC2=Nc3ccccc3S(=O)(=O)N2)c1C | -2 | 0.27
Cc1cc(CN(C)Cc2cn3c(C)cccc3n2)n[nH]1 | -11 | 1.49
C=CCS(=O)(=O)N1CC[C@H](C2CCN(c3ncccn3)CC2)C1 | -19 | 2.01

Compound | % Inhibition [%] | Z score
COc1ccc(N)cc1N1CCCN(Cc2ccc(C(C)C)cc2)C1=O | -5 | 0.77
CCc1nc(-c2cc(NC(=O)c3ccc(Cl)cc3)c(C)s2)no1 | -1 | 0.07
N#CCNC(=O)CNc1ccc(C(F)(F)F)c(Br)c1 | -5 | 0.96
CCCCN(CCO)C(=O)Nc1cc(Cl)ccc1C | -8 | 0.87
N#Cc1ccc(NC(=O)N2CCC(F)(F)CC2)cn1 | 4 | -0.71
Cc1cc(C)cc(NC(=O)CCNC(=O)c2cnccn2)c1 | 34 | -3.82
COc1ccc(C(=O)N(Cc2cc(NC(=O)C3CCCC3)ccc2N(C)C)CC(C)C)cc1 | -14 | 1.99
O=C(NCc1nnc2n1CCOCC2)c1cc(F)ccc1Cl | -7 | 0.69
CS(=O)(=O)CC1(CC(=O)NC2CC2c2cc(F)ccc2F)CC1 (stereo not given) | -2 | 0.25
COc1ccc(NC(=O)c2c(C)nn(C)c2C)cn1 | -14 | 1.96
CCOC1CC(CC(=O)Nc2cccc([C@@H](F)C(F)(F)F)c2)C1 (stereo not given in full) | -19 | 2.39
CN1CC[C@@H]2CN(C(=O)NCCc3ccccc3)C[C@@H]21 | -8 | 1.1
Cc1ccc(-c2nn(CC(=O)Nc3ccc(F)cc3)c3c2cnc2ccccc23)cc1 | -7 | 1.17
Cc1cnc2c(Cl)c(C(=O)N(C)C[C@H](C)N3CCOCC3)nn2c1 | -5 | 0.72
CN(C)CCn1c(=O)[nH]c2ccc(C(=O)NCCc3ccco3)cc21 | -2 | 0.3
COc1cc2ccccc2cc1C(=O)Nc1nnn(C)n1 | 27 | -3.7
c1ccc(Cc2nc(CNc3ncccn3)no2)cc1 | -11 | 1.6
CCc1ccc(-c2cc(C(=O)Nc3ccc4nc(NS(C)(=O)=O)sc4c3)[nH]n2)cc1 | -13 | 1.27
CCOc1cccc(CNC(=O)c2cn3c(n2)C(=O)N[C@H](c2ccc(OC)cc2)C3)c1 | -7 | 1.26
CCN1C[C@H](CN(C)C(=O)NC2CCCC2)Oc2ccccc21 | -6 | 1.14
COCCN1CCC2(CC1)OCc1ccccc12 | -4 | 0.63
CCS(=O)(=O)CCN1C(=O)CN(Cc2ccc(C(F)(F)F)cc2)C1=O | -12 | 1.46

Compound | % Inhibition [%] | Z score
c1ccc2oc(CN3CCC4(CC3)OCCO4)nc2c1 | 3 | -0.39
Cc1noc(C)c1C(=O)N[C@@H]1[C@H]2CCO[C@H]2[C@H]1Cc1ccccc1 | -13 | 2.51
CCc1ccc([C@H]2CC(=O)Nc3n[nH]cc32)nc1 | 2 | -0.21
CC[C@@H](C(=O)N1CCOCC2(CCC2)C1)c1ccccc1 | 5 | -0.99
N#CCC[C@@](C#N)(c1ccccc1)C1CCN(Cc2ccccc2)CC1 | -29 | 3.42
O=C(NC1CCCC1)c1n[nH]c2c1CCc1ccccc1-2 | -18 | 1.58
C[C@@H]1OCCO[C@@H]1C(=O)Nc1nc2ccccc2n1CC1CC1 | -1 | 0.14
O=C1CC(C(=O)N[C@H](CO)CC2CCCCC2)C1 | -7 | 0.79
COc1ccccc1NC(=O)[C@H]1CCCN(c2ccnc(-c3cccc(F)c3)n2)C1 | -18 | 2.12
Cc1cc(C)n2c(-c3cccnc3)nnc2n1 | 34 | -4.41
CN(c1ccccc1)c1nnc(-c2ccc(NC(=O)c3cccs3)cc2)s1 | -7 | 1.24
CCOc1cccc(-c2cc(C(=O)NC3CCN(C)CC3)c3ccc(Cl)c(C)c3n2)c1 | 0 | -0.04
Cc1ncn(CC(=O)NCc2cncc(C3CC3)c2)c(=O)c1C | -8 | 1.43
CC(C)N(C(=O)c1cnn(CC(=O)NC2CCCCC2)c1)[C@H]1CCOC1 | -2 | 0.3
Cc1cc2c(cc1S(=O)(=O)N1CCC(Cc3ccccc3)CC1)OCC(=O)N2 | -4 | 0.65
COC(=O)c1n[nH]c2ccc(NS(=O)(=O)c3ccc4c(c3)CCCC4)cc12 | 3 | -0.53
CCOc1ccc(Cc2nnc(N3CCOCC3)[nH]c2=O)cc1 | -14 | 1.76
COc1ccc(CN2CCC[C@H]2c2nccs2)cc1Cl | 4 | -0.47
CC(C)c1noc(CN(C)CC[C@H]2CCS(=O)(=O)C2)n1 | -13 | 1.43
CC(=O)N1CCc2ccc(OCc3ccc(C(=O)NCC4CC4)o3)cc2[C@@H]1c1ccccc1 | -17 | 1.99
COc1ccc(S(=O)(=O)Nc2cccc(Cl)c2Cl)cc1C(=O)N1CCCCCC1 | -31 | 3.6
Cn1cc(C2CCCN2CC(O)COc2ccc(F)cc2)cn1 (stereo not given) | -10 | 0.82

Compound | % Inhibition [%] | Z score
Cc1ccsc1CN(Cc1ccc(F)cc1)C(=O)CN(CCN1CCCC1)C(=O)c1ccccc1F | -6 | 0.7
CC(C(=O)N1C[C@H](C)[C@@](C)(C(=O)O)C1)C1CC1 (stereo not given in full) | -2 | 0.27
C[C@H](Nc1ccc2c(c1)CCO2)C(=O)N(CCC#N)c1ccccc1 | -6 | 1.16
Cc1nc2c(c(N3CCCC3)n1)CCN(C(=O)c1cc(CC(C)C)no1)C2 | -4 | 0.86
CC(C(=O)NCCCC1CCCN1C(=O)OC(C)(C)C)C1CC1 (stereo not given) | -7 | 0.62
O=C(NCc1ccccc1)C1CCC(Cn2c(=O)c3ccccc3n(Cc3cccnc3)c2=O)CC1 (stereo not given) | 0 | 0.05
NC(=O)[C@@H]1COCCN1Cc1ccc(OCc2ccccc2F)nc1 | 1 | -0.21
CC(=C(F)C(=O)N1CCN(Cc2ccnn2C)CC1)C1CC1 | -6 | 1.21
CC(C)c1[nH]ccc1C(=O)NC1(c2ccccc2)COC1 | 0 | -0.06
Cc1noc2ncc(C(=O)N3CCC[C@H]3c3ccc(C(C)(C)C)cc3)cc12 | -3 | 0.6
C[C@H](NC1CCCCCC1)c1ccc(S(N)(=O)=O)cc1F | -6 | 0.92
C[C@H]1CN(Cc2ccccc2OCC(=O)O)CC[C@]1(O)C1CC1 | -8 | 1.62
Cc1ccc(C)c(C2CCN(C(=O)[C@H](C)N3C(=O)CCC3=O)CC2)c1 | 5 | -0.61
CC[C@@](C)(C#N)NC(=O)c1ccc(OC)c(OC)c1 | -14 | 2.94
C[C@@H](NC(=O)N[C@@H]1CCNC1)C(c1ccccc1)c1ccccc1 | -7 | 0.87
C[C@@H](Cc1ccc(C(F)(F)F)cc1)C(=O)N(C)c1nccs1 | 14 | -1.49
Cc1ccc(-c2cn(CCN3CCCOC3=O)nn2)o1 | -16 | 2.13
CC[C@H](NC(=O)c1[nH]nc(C)c1Cl)c1nccs1 | 2 | -0.39
COc1ccccc1CN(C(=O)c1ccco1)c1nc2[nH]c(C)c(Cc3ccccc3)c(=O)n2n1 | -11 | 1.07

Reference: ChEMBL document CHEMBL4888484, “Replenishing the malaria drug discovery pipeline: Screening and hit evaluation of the MMV Hit Generation Library 1 (HGL1) against asexual blood stage Plasmodium falciparum ,using a nano luciferase reporter read-out” (2022)
